Measurements published in ChEMBL document CHEMBL1157539, “Thousands of chemical starting points for antimalarial lead identification” (Nature, 2010).
The full ranking holds about 13,000 compounds; the median of “IFI” is about 4, and the highest 2% start at about 17. This is one part of the list.

Test: GSK_TCMDC: Inhibition Frequency Index (IFI). The number of non-kinase HTS assays where a compound showed > 50 % inhibition, expressed as a percentage of the number of such assays in which the compound was tested (-0 is zero)
Assay type: functional
`CCCNC(=O)C1Cc2c([nH]c3ccc(Br)cc23)C2(CCN(CCc3ccccc3)CC2)N1` (stereo not drawn) showed an IFI of 8.82%. Work on `Cc1cc(N(C)C)nc(Nc2ccc(NC(=O)C(C)Oc3ccccc3)cc2)n1` (stereo not drawn) yielded an IFI of 3.92%. Molecule `COc1ccc(CNCc2ccc(-c3cccc(-c4nc5cc(F)ccc5[nH]4)c3)cc2)cc1` has an IFI of 7.55%. For `COc1ccc(CCc2ccc(-c3c(C)[nH]c(C)c(Cl)c3=O)cc2)cc1OC`, the IFI was -0%. For `COc1ccc2nccc([C@@H](O)CN3CCC(NC(=O)c4ccc(-c5ccc(C#N)cc5)cc4)CC3)c2c1`, the IFI was 7.48%. Work on `c1cc(-c2ccc(CN3CCCC3)cc2)cc(-c2nc3ccccc3[nH]2)c1` yielded an IFI of 1.35%. `C=CCN(C(=O)c1ccc(Cl)c([N+](=O)[O-])c1)c1nc(-c2ccccc2)cs1` gave an IFI of 3.39%. `CCNc1cc(C(=O)N[C@@H](Cc2ccccc2)[C@H](O)CNC23CC4CC(CC(C4)C2)C3)cc(N2CCCCS2(=O)=O)c1` showed an IFI of 0.75%. `CC(CN(C)C)C(=O)Nc1cccc(-c2cccc(-c3nc4cc(F)ccc4[nH]3)c2)c1` (stereo not drawn) showed an IFI of 5.41%. `NCCCCNc1cc(-c2ccnc(Nc3cccc(Cl)c3)n2)ccn1` showed an IFI of 13%. In the case of `Cc1cc(N)c2cc(NC(=O)c3ccc4ccccc4c3)ccc2n1`, the IFI is reported as 6.08%. `CN(C)CCCn1cncc1-c1ccc2ncnc(Nc3ccc4c(cnn4Cc4ccccc4)c3)c2c1` showed an IFI of 0.75%. Work on `COc1cccc2cc(C(=O)N[C@@H](CC(C)C)C(=O)N[C@H](/C=N/NC(=O)Cc3cccnc3)CCc3ccccc3)oc12` yielded an IFI of 5.36%. In the case of `Cc1cc(F)ccc1-c1nc(NCCCNCCc2ccccc2)nc2c1ccc(=O)n2-c1c(F)cccc1F`, the IFI is reported as 7.81%. In the case of `CC1(C)N=C(N)N=C(N)N1OCc1cccc2c1ccc1ccccc12`, the IFI is reported as 4.93%. Work on `CC(=O)N(C)c1ccc(C(=O)Nc2cccc(-c3cccc(-c4nc5cc(C(F)(F)F)ccc5[nH]4)c3)c2)cc1` yielded an IFI of 7.89%. For `COc1c(OC)c(OC)c2ccccc2c1CNCCCCCCNCc1c(OC)c(OC)c(OC)c2ccccc12`, the IFI was 14.8%. `O=S(=O)(NCCN1CCCC1)c1ccc(-c2ccc(CNCc3ccc(F)cc3)cc2)s1` gave an IFI of 11.7%. `CCn1ncc2c(N3CCCC3=O)cc(C(=O)N[C@@H](Cc3ccccc3)[C@H](O)CNC(C)(C)c3cccc(OC)c3)cc21` gave an IFI of 1.46%. With `CCCCC1(NC(=O)[C@@H](Nc2ccc(C#N)c3ccccc23)C2CCCCC2)CCCCC1` the IFI was 0.96%. In the case of `CC1CCC(C(C)C)C(OC(=O)CSc2nnc3c(n2)[nH]c2ccccc23)C1` (stereo not drawn), the IFI is reported as 0%. In the case of `CCCN1CCN(Cc2ccc(C(=O)Nc3ccc(Cl)cc3)cc2)CC1`, the IFI is reported as 4.8%. `COC(=O)C(Cc1ccccc1)NC(=O)NC1CCN(c2ccnc(Nc3ccc(F)cc3)n2)C1` (stereo not drawn) gave an IFI of 3.08%. Molecule `Cc1cc(NC(=O)NC(=N)N)ccc1Cl` has an IFI of 2.88%. `O=C(Cn1c(SCc2cccc(F)c2F)cc(=O)c2ccccc21)N(CCCn1ccnc1)Cc1ccc(-c2ccc(C(F)(F)F)cc2)cc1` gave an IFI of 2.17%. Molecule `O=c1cc(NCCCNCc2cc(C(F)(F)F)ccc2Cl)[nH]c2ccccc12` has an IFI of 0.72%. For `COc1ccc2[nH]c(C(=O)Nc3ccc4[nH]c(-c5ccccc5)nc4c3)cc2c1`, the IFI was 7.69%. `CCOc1ccc(-c2nonc2NC(=O)c2ccccc2OC)cc1OCC` gave an IFI of 2.99%. In the case of `COc1ccc(C2NCCc3c2[nH]c2ccccc32)cc1CN1CCN(c2ccc(F)cc2)CC1` (stereo not drawn), the IFI is reported as 10%. `COc1ccc2ccccc2c1CNCC1CCN(CC2CCCCC2)CC1` showed an IFI of 5.88%. Work on `O=S(=O)(NCCN1CCCC1)c1ccc(-c2ccc(CNC3Cc4ccccc4C3)cc2)cc1` yielded an IFI of 7.69%. For `O=C(Nc1ccc(OC2CCN(CC3CC3)CC2)c(Cl)c1)c1ccc2ncccc2c1`, the IFI was 3.08%. Work on `CCCN1CCC=C(c2cccc(Nc3nccc(Nc4cc(OC)ccc4C)n3)c2)C1` yielded an IFI of 5.04%. For `CCCC1N=C(N)N=C(N)N1c1ccc(C)cc1` (stereo not drawn), the IFI was -0%. In the case of `CC(C)c1ccc(NC(=O)c2cccc(CN3CCCN(CC4CCCCC4)CC3)c2)cc1`, the IFI is reported as 14.7%. `Cc1cc(=NN=Cc2ccccn2)c2cc(F)ccc2[nH]1` showed an IFI of 2.99%. For `Cc1ccc(NC(=O)c2cccc(CN3CCCN(Cc4cccc(O)c4)CC3)c2)cc1F`, the IFI was 4.23%. With `CC(CN1CCN(C)CC1)C(=O)Nc1cccc(-c2ccc(-c3nc4ccccc4[nH]3)s2)c1` (stereo not drawn) the IFI was 1.85%. With `CC(Oc1cccc(Cl)c1)C(=O)N1CCc2ccccc21` (stereo not drawn) the IFI was 1.44%. In the case of `CN(C)c1cccc2c(S(=O)(=O)Nc3cccc(CCN4CCC(N5CCCCC5)CC4)c3)cccc12`, the IFI is reported as 18%. With `CC(C)(CNCc1ccc(C(F)(F)F)cc1)c1nc(-c2ccnc(N)n2)c(-c2ccc(Cl)c(O)c2)[nH]1` the IFI was 10.6%. Work on `C/C(=C\C(=O)NC1CC1)c1ccccc1OCc1ccccc1` yielded an IFI of 1.5%. Work on `Cc1ccc(CN2CCCN(Cc3cccc(NC(=O)c4ccc(-c5ccccc5)cc4)c3)CC2)cc1C` yielded an IFI of 5.48%. With `O=C(Cc1ccc[n+]([O-])c1)Nc1ccc(-c2cccc(-c3nc4cc(C(F)(F)F)ccc4[nH]3)c2)cc1` the IFI was 0.9%. In the case of `COc1ccc2c(=O)c(-c3ccc(OC(F)(F)F)cc3)c(C)[nH]c2c1`, the IFI is reported as -0%. With `FC(F)(F)c1ccc2[nH]c(-c3cccc(-c4ccc(CNCCN5CCNCC5)cc4)c3)nc2c1` the IFI was 9.9%. With `Oc1ccc(CCCNc2nc(NCc3cccc4ccccc34)nc(N3CCCNCC3)n2)cc1` the IFI was 11.9%. Molecule `CCCCCNC(=N)N/N=C/c1c[nH]c2ccc(OC)cc12` has an IFI of 7.75%. For `CCCN1CCc2c(sc3nc(SCC(=O)Nc4ccc(C)cc4)n(-c4ccc(C)cc4)c(=O)c23)C1`, the IFI was 2.74%. Work on `COc1cc(NC(=O)c2cccs2)c(C(=O)NCc2ccc(C)cc2)cc1OC` yielded an IFI of 0%. Work on `O=C(Nc1ccc(N2CCN(Cc3ccccc3)CC2)cc1)c1cccs1` yielded an IFI of 0%. With `Cc1nc(N)nc(N)c1-c1ccc(Br)c([N+](=O)[O-])c1` the IFI was 3.08%. With `COc1ccc2nccc([C@@H](O)CN3CCC(NCc4cc5ccccc5nc4O)CC3)c2c1` the IFI was 1.39%. In the case of `C[C@H]1CN(Cc2cccc(-c3cc(CNC(=O)c4cccc(C(=O)c5ccc(Cl)c(Cl)c5)c4)ccc3F)c2)CCN1`, the IFI is reported as 18.6%. Molecule `COc1ccc2c(c1)[nH]c1c(/C=C/c3ccc([N+](=O)[O-])cc3)nccc12` has an IFI of 2.96%. `CC(C)C[C@H](NC(=O)c1cc2ccccc2s1)C(=O)N[C@H]1CCN(Cc2ccc(OC3CCN(C)C3)c(Cl)c2)C1` (stereo partly drawn) gave an IFI of 6.67%. Molecule `COc1ccc(C#Cc2ccc(-c3c(C)[nH]c(C)c(Cl)c3=O)cc2)cc1` has an IFI of 0.88%. `CCCN(Cc1ccc(C)cc1)Cc1cc(=O)c2cc(Cl)ccc2[nH]1` gave an IFI of 9.09%. With `Nc1ncc(-c2ccsc2)cc1-c1nc2ccccc2[nH]1` the IFI was 5.71%. With `O=C(N[C@H]1CCN(CCc2ccc(O[C@H]3CCNC3)c(Br)c2)C1)c1ccc(Cl)c(Cl)c1` the IFI was 4.2%. Molecule `CCCCCCn1c(Sc2ccc(C#N)c([N+](=O)[O-])c2)nnc1-c1ccc(Cl)cc1` has an IFI of 6.43%. Molecule `Fc1cccc(Nc2nc(NCc3ccc4ccsc4c3)nc(Nc3cccc(F)c3)n2)c1` has an IFI of 3.85%. `COc1cccc(CNC(=O)c2cccc(-c3ccc(CN4CCC(N5CCCC5)CC4)cc3)n2)c1` showed an IFI of 9.09%. Molecule `COc1ccc(Nc2nc(N3CCCC3)c3ccccc3n2)cc1` has an IFI of 7.76%. For `CCCCc1cc(NCc2ccncc2)nc(Nc2ccc(OC)cc2)n1`, the IFI was 4.48%. Molecule `CC(=O)N1N=C(c2[nH]c3ccc(Br)cc3c2C)OC1c1ccccc1` (stereo not drawn) has an IFI of 2.44%. In the case of `COc1cc2nc(NCc3nc4ccccc4[nH]3)nc(N)c2cc1OC`, the IFI is reported as -0%. `Cc1ccc(NC(=O)c2ccc(N3CCN(c4ccncc4)CC3)cc2)cc1F` gave an IFI of 6.9%. Work on `O=C(Cn1c(SCc2cccc(F)c2F)cc(=O)c2ccccc21)N(CCc1c[nH]cn1)Cc1ccc(-c2ccc(C(F)(F)F)cc2)cc1` yielded an IFI of 5.19%. `N=c1n(CCN2CCCCC2)c2ccccc2n1CC(O)c1ccc(Cl)c(Cl)c1` (stereo not drawn) showed an IFI of 5.04%. With `CC(C)CCC[C@@H]([C@@H](CC1CCCCC1)C(=O)N[C@@H](CCCCNC(=O)OCc1ccccc1)C(=O)Nc1nccs1)N(O)C=O` the IFI was 1.53%. Molecule `O=c1cc(NCCCNC2CCCc3c2cc(Cl)c(Cl)c3Cl)[nH]c2ccccc12` (stereo not drawn) has an IFI of 9.86%. Molecule `O=C(C1CC1c1ccccc1)N(Cc1ccc(-c2ccc(CNCCc3ccccc3)cc2)cc1)C1CCNCC1` (stereo not drawn) has an IFI of 4.48%. `Cn1cnnc1Sc1ccc(CN2CCOc3ccc(C4=CCCCC4)cc3C2)o1` gave an IFI of 2.63%. For `CC1CN(c2cnn(C/C=C/c3ccc(NC(=O)c4ccc([N+](=O)[O-])cc4)cc3)c(=O)c2Cl)CC(C)N1` (stereo not drawn), the IFI was 1.28%. For `CC(C)OC(=O)c1ccc(NC(=O)N[C@@H](Cc2ccc(O)cc2)C(=O)NC2CC3CCC(C2)N3Cc2ccccc2)cc1` (stereo partly drawn), the IFI was 1.74%. With `O=C(Cn1c(CCc2cccc(F)c2F)cc(=O)c2ccccc21)N(Cc1ccc(-c2ccc(C(F)(F)F)cc2)cc1)C1CCN(CCN2CCOCC2)CC1` the IFI was 7.3%. Molecule `Cc1cccc2nc(-c3ccc(-c4cccc(CNC(C)C)c4)s3)[nH]c12` has an IFI of 5.88%. `COc1ccc(CCN2CCC(CN(C)Cc3cnn(-c4ccccc4)c3)CC2)cc1` showed an IFI of -0%. Molecule `CCCNCc1ccc(-c2ccc(CN(CCOC)C(=O)CCCOCc3ccccc3)cc2)nc1` has an IFI of 2.24%. `COc1ccc(OC)c(Cc2cnc3nc(N)nc(N)c3c2C)c1` gave an IFI of 4.14%. `COc1ccc2ncc(F)c(CCN3CCC(NCc4ccc5c(c4)CCO5)CC3)c2n1` gave an IFI of 4.39%. For `Cc1noc(C)c1CN1Cc2ccccc2OC2(CCN(Cc3c[nH]c4cnccc34)CC2)C1`, the IFI was 0%. `COc1cc(C)nc2ccc(NC(=O)c3ccc(C(=O)Nc4ccc5nc(C)cc(OC)c5c4)cc3)cc12` gave an IFI of -0%. With `COc1ccc(Nc2ncc3c(-c4cccc(NC(=O)Cc5ccc(F)cc5)c4)c[nH]c3n2)cc1OC` the IFI was 3.65%. Work on `O=C(/C=C/c1c[nH]c2ccccc12)NCCCCCN1CCC(c2c[nH]c3ccccc23)CC1` yielded an IFI of 4.29%. For `CCC[C@@H]([C@@H](CC(C)C)C(=O)N[C@@H](CCCNc1nccc(C(F)(F)F)n1)C(=O)Nc1nccs1)N(O)C=O`, the IFI was 2.26%. Work on `CC(C)CCNC(=O)C1Cc2c([nH]c3ccc(Br)cc23)C2(CCN(Cc3ccccc3)CC2)N1` (stereo not drawn) yielded an IFI of 7.04%.
